In patent publication US11178870B2 (priority 2017, dated 2021):

Legend:
Assay type in all cases: in vivo
Alternaia brassicicola = assay: Test Example C: Alternaria sooty spot on cabbage; details: for control value, Test C (Alternaria sooty spot on cabbage): Table 7, Test C; for Test C control value: Alternaria sooty spot on cabbage; for Test C control value (Alternaria sooty spot on cabbage): class of control value, Table 7
Puccinia recondita = assay: Test Example E: Brown rust on wheat; details: for control value, Test E (brown rust on wheat): Table 7, Test E; for Test E control value: Brown rust on wheat; for Test E control value (brown rust on wheat): class of control value, Table 7
[1] = test system: Blumeria graminis f. sp. hordei; assay: Test Example D: Powdery mildew on barley; details: for control value, Test D (powdery mildew on barley): Table 7, Test D; for Test D control value: Powdery mildew on barley; for Test D control value (powdery mildew on barley): class of control value, Table 7
Plasmopara viticola = assay: Test Example G: Downy mildew on vine; details: for control value, Test G (downy mildew on vine): 250 ppm sprayed (2.5 ml/pot) before inoculation, assessed 7 to 10 days after inoculation; for Test G control value: Downy mildew on vine, 250 ppm sprayed, 7 to 10 days after inoculation; for Test G control value / Test G control value (downy mildew on vine): 2.5 ml/pot; for Test G control value (downy mildew on vine): 250 ppm spray, investigated 7 to 10 days after inoculation
Botrytis cinerea = assay: Test Example B: Gray mold on tomato; details: for control value, Test B (gray mold on tomato): Table 7, Test B; for Test B control value: Gray mold on tomato; for Test B control value (gray mold on tomato): class of control value, Table 7

Cc1cnn(-c2ccc(=O)n(CC(F)F)c2-c2c(F)cccc2F)c1 [Compound 186]
control value, Test C (Alternaria sooty spot on cabbage) (Alternaia brassicicola): H (H shows the control value more than 50%)
control value, Test E (brown rust on wheat) (Puccinia recondita): H (H shows the control value more than 50%)
control value, Test D (powdery mildew on barley) [1]: H (H shows the control value more than 50%)
control value, Test G (downy mildew on vine) (Plasmopara viticola): L (L shows the control value of 50% or less)
control value, Test B (gray mold on tomato) (Botrytis cinerea): H (H shows the control value more than 50%)

CCn1c(-c2c(F)cc(F)cc2F)c(-n2c(Cl)ccc2Cl)cc(Cl)c1=O [Compound 133]
Test C control value (Alternaia brassicicola): H (H shows the control value more than 50%)
Test E control value (Puccinia recondita): H (H shows the control value more than 50%)
Test D control value [1]: H (H shows the control value more than 50%)
Test G control value (Plasmopara viticola): H (H shows the control value more than 50%)
Test B control value (Botrytis cinerea): H (H shows the control value more than 50%)

O=c1ccc(-c2sccc2Br)c(-c2c(F)cccc2F)n1CC(F)F [Compound 418]
Test C control value (Alternaria sooty spot on cabbage) (Alternaia brassicicola): H (H shows the control value more than 50%)
Test E control value (brown rust on wheat) (Puccinia recondita): H (H shows the control value more than 50%)
Test D control value (powdery mildew on barley) [1]: H (H shows the control value more than 50%)
Test G control value (downy mildew on vine) (Plasmopara viticola): L (L shows the control value of 50% or less)
Test B control value (gray mold on tomato) (Botrytis cinerea): H (H shows the control value more than 50%)

CCn1c(-c2ccc(F)cc2F)c(-n2cc(F)cn2)ccc1=O [Compound 250]
control value, Test C (Alternaria sooty spot on cabbage) (Alternaia brassicicola): H (H shows the control value more than 50%)
control value, Test E (brown rust on wheat) (Puccinia recondita): H (H shows the control value more than 50%)
control value, Test D (powdery mildew on barley) [1]: H (H shows the control value more than 50%)
control value, Test G (downy mildew on vine) (Plasmopara viticola): L (L shows the control value of 50% or less)
control value, Test B (gray mold on tomato) (Botrytis cinerea): H (H shows the control value more than 50%)

CCn1c(-c2c(F)cccc2F)c(-c2sccc2Cl)ccc1=O [Compound 393]
Test C control value (Alternaria sooty spot on cabbage) (Alternaia brassicicola): H (H shows the control value more than 50%)
Test E control value (brown rust on wheat) (Puccinia recondita): H (H shows the control value more than 50%)
Test D control value (powdery mildew on barley) [1]: L (L shows the control value of 50% or less)
Test G control value (downy mildew on vine) (Plasmopara viticola): H (H shows the control value more than 50%)
Test B control value (gray mold on tomato) (Botrytis cinerea): H (H shows the control value more than 50%)

CCn1c(-c2ccc(C#N)cc2F)c(-n2cc(F)cn2)cc(Cl)c1=O [Compound 508]
Test C control value (Alternaria sooty spot on cabbage) (Alternaia brassicicola): H (H shows the control value more than 50%)
Test E control value (brown rust on wheat) (Puccinia recondita): H (H shows the control value more than 50%)
Test D control value (powdery mildew on barley) [1]: L (L shows the control value of 50% or less)
Test G control value (downy mildew on vine) (Plasmopara viticola): L (L shows the control value of 50% or less)
Test B control value (gray mold on tomato) (Botrytis cinerea): L (L shows the control value of 50% or less)

O=c1c(Br)cc(-n2cc(Cl)cn2)c(-c2c(F)cc(F)cc2F)n1CC(F)F [Compound 207]
control value, Test C (Alternaria sooty spot on cabbage) (Alternaia brassicicola): H (H shows the control value more than 50%)
control value, Test E (brown rust on wheat) (Puccinia recondita): H (H shows the control value more than 50%)
control value, Test D (powdery mildew on barley) [1]: H (H shows the control value more than 50%)
control value, Test G (downy mildew on vine) (Plasmopara viticola): H (H shows the control value more than 50%)
control value, Test B (gray mold on tomato) (Botrytis cinerea): H (H shows the control value more than 50%)

CCn1c(-c2ccc(F)cc2F)c(-n2ncc(C)c2Cl)cc(Cl)c1=O [Compound 182]
Test C control value (Alternaia brassicicola): H (H shows the control value more than 50%)
Test E control value (Puccinia recondita): H (H shows the control value more than 50%)
Test D control value [1]: H (H shows the control value more than 50%)
Test G control value (Plasmopara viticola): H (H shows the control value more than 50%)
Test B control value (Botrytis cinerea): H (H shows the control value more than 50%)

CCn1c(-c2c(F)cc(F)cc2F)c(-n2cnnn2)ccc1=O [Compound 281]
control value, Test C (Alternaria sooty spot on cabbage) (Alternaia brassicicola): H (H shows the control value more than 50%)
control value, Test E (brown rust on wheat) (Puccinia recondita): L (L shows the control value of 50% or less)
control value, Test D (powdery mildew on barley) [1]: H (H shows the control value more than 50%)
control value, Test G (downy mildew on vine) (Plasmopara viticola): L (L shows the control value of 50% or less)
control value, Test B (gray mold on tomato) (Botrytis cinerea): L (L shows the control value of 50% or less)

CCn1c(-c2ccccc2Br)c(-n2ncc(C)c2Cl)cc(Br)c1=O [Compound 271]
control value, Test C (Alternaria sooty spot on cabbage) (Alternaia brassicicola): H (H shows the control value more than 50%)
control value, Test E (brown rust on wheat) (Puccinia recondita): H (H shows the control value more than 50%)
control value, Test D (powdery mildew on barley) [1]: H (H shows the control value more than 50%)
control value, Test G (downy mildew on vine) (Plasmopara viticola): H (H shows the control value more than 50%)
control value, Test B (gray mold on tomato) (Botrytis cinerea): H (H shows the control value more than 50%)

CCn1c(-c2ccc(SC)cc2F)c(-n2ncc(C)c2Cl)cc(Br)c1=O [Compound 373]
Test C control value (Alternaria sooty spot on cabbage) (Alternaia brassicicola): H (H shows the control value more than 50%)
Test E control value (brown rust on wheat) (Puccinia recondita): H (H shows the control value more than 50%)
Test D control value (powdery mildew on barley) [1]: L (L shows the control value of 50% or less)
Test G control value (downy mildew on vine) (Plasmopara viticola): H (H shows the control value more than 50%)
Test B control value (gray mold on tomato) (Botrytis cinerea): H (H shows the control value more than 50%)

CCn1c(-c2ccc(F)cc2F)c(-n2ncc(C)c2Cl)ccc1=O [Compound 506]
Test C control value (Alternaria sooty spot on cabbage) (Alternaia brassicicola): H (H shows the control value more than 50%)
Test E control value (brown rust on wheat) (Puccinia recondita): H (H shows the control value more than 50%)
Test D control value (powdery mildew on barley) [1]: H (H shows the control value more than 50%)
Test G control value (downy mildew on vine) (Plasmopara viticola): H (H shows the control value more than 50%)
Test B control value (gray mold on tomato) (Botrytis cinerea): H (H shows the control value more than 50%)

CCn1c(-c2ccc(OC)cc2F)c(-n2cc(F)cn2)cc(Cl)c1=O [Compound 301]
control value, Test C (Alternaria sooty spot on cabbage) (Alternaia brassicicola): H (H shows the control value more than 50%)
control value, Test E (brown rust on wheat) (Puccinia recondita): H (H shows the control value more than 50%)
control value, Test D (powdery mildew on barley) [1]: H (H shows the control value more than 50%)
control value, Test G (downy mildew on vine) (Plasmopara viticola): L (L shows the control value of 50% or less)
control value, Test B (gray mold on tomato) (Botrytis cinerea): H (H shows the control value more than 50%)

CCn1c(-c2c(F)cccc2F)c(-c2sccc2Br)cc(Br)c1=O [Compound 416]
Test C control value (Alternaria sooty spot on cabbage) (Alternaia brassicicola): H (H shows the control value more than 50%)
Test E control value (brown rust on wheat) (Puccinia recondita): H (H shows the control value more than 50%)
Test D control value (powdery mildew on barley) [1]: H (H shows the control value more than 50%)
Test G control value (downy mildew on vine) (Plasmopara viticola): H (H shows the control value more than 50%)
Test B control value (gray mold on tomato) (Botrytis cinerea): H (H shows the control value more than 50%)

CCn1c(-c2c(F)cc(F)cc2F)c(-n2ncc(C)c2Cl)ccc1=O [Compound 82]
Test C control value (Alternaia brassicicola): H (H shows the control value more than 50%)
Test E control value (Puccinia recondita): H (H shows the control value more than 50%)
Test D control value [1]: H (H shows the control value more than 50%)
Test G control value (Plasmopara viticola): H (H shows the control value more than 50%)
Test B control value (Botrytis cinerea): H (H shows the control value more than 50%)

CCn1c(-c2c(F)cccc2F)c(-c2cnc(N)o2)cc(Cl)c1=O [Compound 135]
Test C control value (Alternaia brassicicola): L (L shows the control value of 50% or less)
Test E control value (Puccinia recondita): L (L shows the control value of 50% or less)
Test D control value [1]: L (L shows the control value of 50% or less)
Test G control value (Plasmopara viticola): H (H shows the control value more than 50%)
Test B control value (Botrytis cinerea): L (L shows the control value of 50% or less)

CCn1c(-c2c(F)cc(F)cc2F)c(-n2cc(OC)cn2)cc(Cl)c1=O [Compound 128]
Test C control value (Alternaia brassicicola): H (H shows the control value more than 50%)
Test E control value (Puccinia recondita): H (H shows the control value more than 50%)
Test D control value [1]: H (H shows the control value more than 50%)
Test G control value (Plasmopara viticola): H (H shows the control value more than 50%)
Test B control value (Botrytis cinerea): L (L shows the control value of 50% or less)

COc1ccc(-c2c(-n3cc(Cl)cn3)cc(Br)c(=O)n2CC(F)F)c(F)c1 [Compound 215]
control value, Test C (Alternaria sooty spot on cabbage) (Alternaia brassicicola): H (H shows the control value more than 50%)
control value, Test E (brown rust on wheat) (Puccinia recondita): H (H shows the control value more than 50%)
control value, Test G (downy mildew on vine) (Plasmopara viticola): H (H shows the control value more than 50%)
control value, Test B (gray mold on tomato) (Botrytis cinerea): H (H shows the control value more than 50%)

CCn1c(-c2ccc(F)cc2Cl)c(-n2cc(F)cn2)cc(Cl)c1=O [Compound 328]
control value, Test C (Alternaria sooty spot on cabbage) (Alternaia brassicicola): H (H shows the control value more than 50%)
control value, Test E (brown rust on wheat) (Puccinia recondita): H (H shows the control value more than 50%)
control value, Test G (downy mildew on vine) (Plasmopara viticola): L (L shows the control value of 50% or less)
control value, Test B (gray mold on tomato) (Botrytis cinerea): H (H shows the control value more than 50%)

CCn1c(-c2c(F)cccc2Cl)c(-n2cc(Cl)cn2)ccc1=O [Compound 197]
control value, Test C (Alternaria sooty spot on cabbage) (Alternaia brassicicola): H (H shows the control value more than 50%)
control value, Test E (brown rust on wheat) (Puccinia recondita): H (H shows the control value more than 50%)
control value, Test G (downy mildew on vine) (Plasmopara viticola): L (L shows the control value of 50% or less)
control value, Test B (gray mold on tomato) (Botrytis cinerea): H (H shows the control value more than 50%)

O=c1c(Br)cc(-n2cc(Cl)cn2)c(-c2ccccc2F)n1CC(F)F [Compound 278]
control value, Test C (Alternaria sooty spot on cabbage) (Alternaia brassicicola): H (H shows the control value more than 50%)
control value, Test E (brown rust on wheat) (Puccinia recondita): H (H shows the control value more than 50%)
control value, Test G (downy mildew on vine) (Plasmopara viticola): H (H shows the control value more than 50%)
control value, Test B (gray mold on tomato) (Botrytis cinerea): H (H shows the control value more than 50%)
